Assay results: the supplement of paper PMC11417369
The other results are listed elsewhere or left out.

Tested on: PfSIP2 AP2 domain 1 (GST-tagged)
Experiment: gcPBM binding intensity (ln(normalized median fluorescence intensity)); higher = stronger DNA binding
Outline: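 An Agilent 4 × 180k array carrying primer-extended double-stranded 36-bp intergenic genomic probes and negative controls received GST-tagged P. falciparum DNA-binding domains expressed in E. coli, about 25 μg on average, for 1 h. The binding buffer contained 1× PBS, 1% milk, 0.2 mg/ml BSA, 0.5% salmon testes DNA and 0.03% Triton X-100. Binding intensity is the top Masliner-normalised natural-log median intensity across replicate spots of either probe orientation, read after Alexa488 anti-GST antibody staining and a 488 nm scan.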

Row | Sequence | gcPBM binding intensity (ln)
1 | GATAATTTTTTTCTCACACACAAATATTTTAATCAT [CACACA_site3666] | 7.24
2 | AAATATATTATATCATATATTAAAGCATATATTAAA [CACACA_negctrl_site1624] | 6.67
3 | AAAAAAAAAAAACACACACACACACCGACACATACA [CACACA_site5576] | 7.2
4 | AGGTAAAAATGGTAAGTGCATTAATGATAAAAAATG | 7.96
5 | GAATATTCACATACTTGTACATATATATATATATAT [XGTACX_site7302] | 8.9
6 | TAATAATAGTACTGACATCGAAATATTATTAAAAAT [CACACA_negctrl_site255] | 6.73
7 | TGGCAAAATAGGCACACACACATATACCTATAGATT [CACACA_site7168] | 7.05
8 | GTAAATATATAAACATGTACATATATAAATATATAA [XGTACX_site7262] | 7.17
9 | ATATTTTGGGGACTTTTTAAAAAAGAAGTATTAAAA [CACACA_negctrl_site1228] | 7.21
10 | CAAAAAAAATAAAACACACACACAAAAAAATAAAAA [CACACA_site466] | 6.88
11 | TATAAGAATAAAAAGGGTACATAAAATAATAATATA [XGTACX_site2355] | 7.13
12 | GTTTACATAGATAACTGTACGCAATGATATTAGACA [XGTACX_site1320] | 7.05
13 | ATATTTCTGTGTGGATGTACATTATTAGCAGGCTTT [XGTACX_site6496] | 7.24
14 | AAAATATATACACAAACATGCATATAATAAATAAAT [TGCATGCA_site711] | 6.94
15 | TTCTTTTTATTTATATTTTCCCCTCTCTATAGCTAT [XGTACX_negctrl_site102] | 7.15
16 | CAAAATAATAATAAAAGTACTAACATATTTATGAAA [XGTACX_site6078] | 6.94
17 | ATAATTCAAAAAAACACACAAATTACAAAATAAACT [CACACA_site6264] | 7.06
18 | TACAAACACCCATATACACACAAAAAAAAAATAAAA [CACACA_site5421] | 7.05
19 | AGAAAAACTTATATGATACACACGATAAACAAAATA [CACACA_site1038] | 6.95
20 | TATATAATATATATATGTACATATATATATGTTTTT [XGTACX_site3347] | 7.06
21 | TATACATAAAACAGTTCACACATTGTATGAATATAT [CACACA_site4751] | 7.05
22 | GGACAACAAACAAACACACACAAAAAAAAAATAAAA [CACACA_site3791] | 7.13
23 | TTGTTTCTTTTTTTTTGTACATATATATTGTATATT [XGTACX_site7602] | 7.25
24 | AATTTTTCAAATTAATGTACTTGTTATAAATTGTAA [XGTACX_site5428] | 6.92
